Reference: publication PMC4336329 (PLoS ONE, 2015)
In all, about 310,000 compounds went through this assay and about 2,200 (0.71%) showed an effect of 50% or more. The effect is printed as a negative number. The list shows a part of the results.

Each compound was assayed against human ether-à-go-go-related gene (hERG) potassium channel (human, UniProt Q12809) (assay: primary screen, population patch clamp on CHO cells stably expressing hERG).
human ether-à-go-go-related gene (hERG) potassium channel, sequence (Q12809 whole entry, looked up): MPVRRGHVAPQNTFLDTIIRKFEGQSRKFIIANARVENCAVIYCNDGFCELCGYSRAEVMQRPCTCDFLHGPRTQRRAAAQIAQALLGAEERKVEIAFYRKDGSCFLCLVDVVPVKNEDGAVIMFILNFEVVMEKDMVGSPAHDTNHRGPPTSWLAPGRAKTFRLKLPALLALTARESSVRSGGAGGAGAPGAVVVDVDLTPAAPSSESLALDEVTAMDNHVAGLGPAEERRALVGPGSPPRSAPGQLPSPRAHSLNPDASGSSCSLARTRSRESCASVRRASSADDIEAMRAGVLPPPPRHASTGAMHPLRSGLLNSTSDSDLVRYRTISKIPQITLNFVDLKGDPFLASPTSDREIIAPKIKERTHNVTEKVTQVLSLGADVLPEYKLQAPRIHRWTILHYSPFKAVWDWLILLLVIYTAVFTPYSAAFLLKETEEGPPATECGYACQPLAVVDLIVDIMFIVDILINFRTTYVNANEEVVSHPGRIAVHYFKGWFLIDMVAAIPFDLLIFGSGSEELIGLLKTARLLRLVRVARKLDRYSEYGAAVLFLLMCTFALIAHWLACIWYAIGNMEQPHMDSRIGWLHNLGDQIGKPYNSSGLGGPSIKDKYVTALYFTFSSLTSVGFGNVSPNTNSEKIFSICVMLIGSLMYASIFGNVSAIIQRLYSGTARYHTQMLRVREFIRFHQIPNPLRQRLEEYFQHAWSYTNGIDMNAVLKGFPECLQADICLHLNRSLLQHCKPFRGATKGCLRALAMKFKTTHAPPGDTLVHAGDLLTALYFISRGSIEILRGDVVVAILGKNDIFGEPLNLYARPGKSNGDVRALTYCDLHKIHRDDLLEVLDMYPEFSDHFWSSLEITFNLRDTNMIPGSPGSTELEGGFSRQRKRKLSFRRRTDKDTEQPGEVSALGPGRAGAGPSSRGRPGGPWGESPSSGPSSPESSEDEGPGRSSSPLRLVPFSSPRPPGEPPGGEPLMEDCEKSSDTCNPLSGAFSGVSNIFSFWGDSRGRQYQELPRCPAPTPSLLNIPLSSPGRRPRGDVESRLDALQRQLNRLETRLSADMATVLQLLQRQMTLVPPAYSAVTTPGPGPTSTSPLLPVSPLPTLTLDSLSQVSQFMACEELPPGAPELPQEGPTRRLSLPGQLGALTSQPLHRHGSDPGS

Row | SMILES | hERG current change (%, negative = inhibition) at 1uM [%]
1 | CCOc1ccc(-n2c(C)cc(C(=O)CCl)c2C)cc1 | 12.6
2 | COC(=O)N1CCc2c(sc(NC(=O)C3=COCCO3)c2C#N)C1 | 3.5
3 | O=C(CNC(=O)c1ccco1)OCC(=O)c1ccccc1Cl | 6.37
4 | O=C1c2ccccc2C(=O)N1OCc1ccccc1[N+](=O)[O-] | 17.6
5 | COc1ccc(NC(=O)/C(=C\c2ccc(OS(=O)(=O)c3ccc(C)cc3)cc2)NC(=O)c2ccccc2)cc1 | 16.7
6 | N#Cc1c(-c2ccccc2F)cc(C2CC2)nc1SCC(=O)c1cccs1 | 20.5
7 | Cc1cc(=O)oc(C)c1C(=O)N1CCN(c2ccc(F)cc2)CC1 | 11.9
8 | Cc1oncc1C(=O)Nc1cccc(C#N)c1 | 10.1
9 | CCN(CC)C(=S)SC1=CCS(=O)(=O)C1 | 14.8
10 | CC(C)C[C@@]12C(=O)N(c3cccc(Cl)c3)C(=O)N1[C@H](c1ccc(F)cc1)[C@@H]1C(=O)N(C3CCCCC3)C(=O)[C@@H]12 | 8.58
11 | CCc1cc(=O)oc2c(C)c(OCC(=O)NCCN3CCOCC3)ccc12 | 12.8
12 | COCCNC(=S)N(CCc1c(C)[nH]c2ccc(OC)cc12)Cc1ccco1 | 9.99
13 | CN(c1nc(-c2ccc(Br)cc2)cs1)C1CCS(=O)(=O)C1 (stereo not drawn) | 3.41
14 | CCOC(=O)/C(C#N)=C\c1ccc(N2CCN(C)CC2)cc1 | -2.52
15 | COc1ccccc1C(=O)NC(=S)NC12CC3CC(CC(C3)C1)C2 | -0.975
16 | Cc1cc(C)c2nc(N3C(=O)C(O)=C(C(=O)c4ccco4)C3c3ccc(O)cc3)sc2c1 (stereo not drawn) | 17.5
17 | Cc1cc(C)cc(NC(=S)N2CCN(S(=O)(=O)c3ccccc3)CC2)c1 | 6.44
18 | COc1ccc(C(=O)OCC(=O)NC(=O)NC2CCCC2)c(O)c1 | 15
19 | CC(=O)c1ccc2c(c1)c1ccccc1n2CC(C)C | 5.8
20 | Cc1ccc(OCC(=O)NC2CCCc3ccccc32)c(C)c1 (stereo not drawn) | 3.53
21 | CC(C)(C)NC(=O)C(c1ccc(OCC(N)=O)cc1)N(C(=O)c1cccnc1)C1CC1 (stereo not drawn) | -0.31
22 | COC(=O)Nc1ccc(S(=O)(=O)N2CCCC(C(=O)N3CC(C)OC(C)C3)C2)cc1 (stereo not drawn) | 14.3
23 | Cc1ccc(C)c(N=C2CCCN2Cc2ccccc2)c1C#N | 7.76
24 | CCN(CC)S(=O)(=O)c1ccc(C(=O)N2CCN(CCN3C(=O)c4cccc5cccc(c45)C3=O)CC2)cc1 | 10.3
25 | CCc1ccc(S(=O)(=O)NCCc2csc(-c3cccnc3)n2)s1 | 9.64
26 | CC(C)CCNC(=O)NC(=O)CSc1nnc(-c2ccccc2F)n1N | -3.73
27 | O=C(Cc1ccccc1)NCC1OCCc2ccccc21 (stereo not drawn) | 1.84

Row | SMILES | hERG current change (%, negative = inhibition) at 1uM [%]
28 | COC(=O)c1cc(Br)c(=O)n(Cc2ccc3c(c2)OCO3)c1 | -0.586
29 | C/C(CCc1ccccc1)=N\NC(=S)NCCc1ccccc1 | 21.7
30 | COC(=O)CCP(=O)(O)Cc1ccccc1CP(=O)(O)CCC(=O)OC | 5.13
31 | COc1ccc(OC)c(NC(=O)c2nnn(Cc3ccc(Br)cc3F)c2N)c1 | 13.9
32 | COc1ccc(N2C(=O)C(CC(=O)Nc3ccccc3)N(Cc3ccccn3)C2=S)cc1 (stereo not drawn) | 5.08
33 | Cc1ccc2cc(CN(CC3CCCO3)C(=S)NCc3ccco3)c(=O)[nH]c2c1C (stereo not drawn) | 6.14
34 | Cc1ccc(C)c(Cn2c(=O)n(CCCC(=O)NCc3ccco3)c(=O)c3ccccc32)c1 | 10.2
35 | COC(=O)C1CCCCN1C(=O)CCc1nnc(CCc2c[nH]c3ccccc23)o1 (stereo not drawn) | 12.8
36 | CCOC(=O)CSC1=C(C#N)C(c2ccccc2Cl)C(C(=O)OC)C(=O)N1 (stereo not drawn) | 3.46
37 | COc1ccc2cc(C)c3nnc(SCC(=O)Nc4nc(-c5ccccc5)cs4)n3c2c1 | -8.76
38 | COc1ccc(C(CC(=O)Nc2nccs2)n2cccc2)cc1 (stereo not drawn) | 13.4
39 | Cc1ccc(S(=O)(=O)N2CCOCC2)cc1C(=O)Nc1ccc(S(=O)(=O)Nc2nccs2)cc1 | 6.12
40 | O=C(Nc1ccccc1)c1ccccc1OCc1cccc([N+](=O)[O-])c1 | 14.1
41 | Cc1ccc(-c2nnc(COc3cccc(-n4cnnn4)c3)o2)cc1 | 3.56
42 | O=C(c1ccncc1)N1N=C(c2ccc(Cl)cc2)CC1c1ccccc1O (stereo not drawn) | 23.4
43 | CC[C@@]12C(=O)N(c3cccc(Br)c3)C(=O)N1[C@H](c1ccc(OC)cc1)[C@@H]1C(=O)N(C(C)(C)C)C(=O)[C@@H]12 | 1.03
44 | O=C(CN1CCOCC1)Nc1ccccc1NC(=O)C1CCN(c2ncccn2)CC1 | 11.6
45 | O=C(NCc1ccco1)C1CCCN(S(=O)(=O)c2cccc3nsnc23)C1 (stereo not drawn) | 7.92
46 | Cn1c(Nc2ccc(F)cc2)nc2ccccc21 | -77.5
47 | CCC(C)[C@H](NC(=O)N1CCn2c1nc1ccccc12)C(=O)NCc1ccccc1 (stereo partly drawn) | 11.9
48 | CCCN1C(=O)/C(=C/c2nc3ccccc3c(=O)[nH]2)c2cc(C)ccc21 | 12
49 | Nc1ccccc1C(=O)N1CCC(O)(c2ccc(Cl)cc2)CC1 | 13.3
50 | Cc1nn(C)c(-c2n[nH]c(=S)n2Cc2ccco2)c1Cl | 12
51 | CS(=O)(=O)N1CCN(c2ccccc2NC(=O)CSc2nnc(-c3ccco3)o2)CC1 | 6.15
52 | CCCCS(=O)(=O)Nc1ccc2ncn(C)c(=O)c2c1 | 5.12
53 | COc1ccccc1CCNC(=O)C(=O)NCC1OCCN1S(=O)(=O)c1ccc(OC)c(OC)c1 (stereo not drawn) | -0.0962
54 | O=C(NCC(=O)N1CCCCCC1)c1ccc(Br)cc1 | 11.2
